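Protocol summary: plate cells (96-well), add compound at 5 concentrations, incubate 48 h, interpolate endpoints linearly. GI50: concentration for 50% inhibition of growth. TGI marks complete inhibition of growth.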
System: NCI-H322M lung
Assay: NCI tumour cell line growth inhibition, 48 h

SMILES | GI50 | TGI
CN(CCO)c1oc(-c2ccccc2)nc1[P+](c1ccccc1)(c1ccccc1)c1ccccc1 | 3.86 µM | 16.3 µM
COc1cc(OC)c(S(=O)(=O)N(CCCl)CCCl)cc1C(=O)/C=C/c1cc(OC)c(OC)c(OC)c1 | 3 µM | 13.8 µM
FC(F)(F)c1cc2c(Cl)ncnc2n1CCC1CCOCC1 | 3.14 µM | 12.5 µM
O=C(Nc1cccc(-c2cn(-c3ccc4oc(=O)ccc4c3)nn2)c1)Nc1cc(C(F)(F)F)cc(C(F)(F)F)c1 | > 100 µM | > 100 µM
Cc1noc2c(Cc3ccccc3)nn(CC(=O)N/N=C/c3ccc(F)cc3)c(=O)c12 | > 100 µM | > 100 µM
